In the antibiotic and cytotoxicity screens of Wong et al. (2023):
Some of the results follow.

Test system: HepG2
Experiment: cytotoxicity call (relative viability < 0.9)
Settings: 10 µM

Compound	cytotoxicity call
Cc1noc(C)c1NC(=O)N(C)C[C@H]1OCCCC[C@H](C)Oc2ccc(NC(=O)Cc3ccccc3)cc2C(=O)N([C@@H](C)CO)C[C@H]1C	inactive
C[C@@H]1CN([C@@H](C)CO)C(=O)Cc2cc(NS(=O)(=O)c3cccs3)ccc2O[C@@H]1CN(C)S(=O)(=O)c1ccc(F)cc1	inactive
C[C@@H]1CCCCO[C@H](CN(C)C(=O)C2CCCCC2)[C@@H](C)CN([C@@H](C)CO)C(=O)c2cc(NS(=O)(=O)c3ccccc3)ccc2O1	inactive
CCC1(C)OC(=O)N(C)C1=O (centres undefined)	inactive
C[C@H](CO)N1C[C@H](C)[C@H](CN(C)C(=O)CN(C)C)Oc2ncc(-c3ccc(C(=O)N(C)C)cc3)cc2C1=O	inactive
C[C@@H]1CN([C@@H](C)CO)C(=O)c2cc(NC(=O)Cn3cnnn3)ccc2O[C@H]1CN(C)Cc1ccc(Oc2ccccc2)cc1	inactive
C[C@@H]1CN([C@@H](C)CO)S(=O)(=O)c2ccc(C#CCN(C)C)cc2O[C@@H]1CN(C)S(=O)(=O)c1cccc(F)c1	inactive
NC(=O)NCC#Cc1ccc2c(c1)[C@]1(C(=O)N2)[C@H](C(=O)Nc2nc3ccccc3s2)[C@H]2C(=O)O[C@H](c3ccccc3)[C@H](c3ccccc3)N2[C@@H]1c1ccccc1OCCO	inactive
COc1ccc(S(=O)(=O)Nc2ccc3c(c2)CC(=O)N([C@@H](C)CO)C[C@@H](C)[C@H](CN(C)CC2CC2)O3)cc1	inactive
C[C@@H]1CCCCO[C@H](CN(C)Cc2ccc(C(F)(F)F)cc2)[C@H](C)CN([C@@H](C)CO)C(=O)c2cc(NC(=O)Nc3ccccc3)ccc2O1	active
C[C@H](CO)N1C[C@H](C)[C@@H](CN(C)S(C)(=O)=O)OCc2cnnn2CCCC1=O	inactive

Test system: S. aureus RN4220
Experiment: growth inhibition call (relative growth <= 0.2)
Settings: 50 µM

Compound	growth inhibition call
COc1ccc(S(=O)(=O)N(C)C[C@@H]2Oc3ccc(NC(=O)C4CC4)cc3CC(=O)N([C@@H](C)CO)C[C@H]2C)cc1	inactive
Cl.Cl.O=C1c2c(O)ccc(O)c2C(=O)c2c(NCCNCCO)ccc(NCCNCCO)c21	inactive
C[C@@H]1CN([C@H](C)CO)C(=O)c2cccc(NC(=O)c3ccc(-c4nccs4)cc3)c2O[C@@H]1CN(C)C(=O)Nc1ccccc1	inactive
COc1cccc(OCc2ccc(Cn3nc(NC(=O)NCc4ccc(F)cc4)c4ccccc43)cc2)c1	inactive
Cc1noc(C)c1NC(=O)N(C)C[C@@H]1OCCCC[C@@H](C)Oc2ccc(NS(=O)(=O)c3ccc(Cl)cc3)cc2C(=O)N([C@@H](C)CO)C[C@H]1C	inactive
C[C@H]1CN([C@@H](C)CO)C(=O)Cc2cc(NC(=O)Cc3cn(C)c4ccccc34)ccc2O[C@H]1CN(C)Cc1ccc(C(F)(F)F)cc1	inactive
C[C@H](CO)N1C[C@H](C)[C@H](CN(C)Cc2ccc(Oc3ccccc3)cc2)Oc2c(NS(=O)(=O)c3cccs3)cccc2C1=O	inactive
CN1C(=O)c2cc(NS(=O)(=O)c3ccc(F)cc3)ccc2OC[C@@H]2O[C@H](CC(=O)NCC(F)(F)F)CC[C@H]21	inactive
Cc1ccc(S(=O)(=O)N[C@H]2C=C[C@@H](CC(=O)NCCN3CCCCC3)O[C@H]2CO)cc1	inactive
CCOC(=O)c1n[nH]c(=S)[nH]c1=O	inactive
C[C@@H]1CN([C@H](C)CO)C(=O)CCCn2cc(nn2)CO[C@@H]1CN(C)C(=O)Nc1ccc(C(C)(C)C)cc1	inactive
Cc1noc(C)c1NC(=O)Nc1ccc2c(c1)C(=O)N(C)[C@H]1CC[C@H](CC(=O)Nc3ccc4c(c3)CCCC4)O[C@@H]1CO2	inactive
C[C@@H]1CCCCO[C@@H](CN(C)Cc2ccncc2)[C@@H](C)CN([C@@H](C)CO)C(=O)c2cc(NC(=O)C3CCCCC3)ccc2O1	inactive
C[C@H](NC(=O)C[C@@H]1C[C@@H]2c3cc(NC(=O)Nc4ccc(C(F)(F)F)cc4)ccc3O[C@@H]2[C@H](CO)O1)c1ccccc1	inactive
CC(C)N1C[C@@H](CN(C)CCc2ccc(Cl)c(Cl)c2)Oc2c(NC(=O)c3ccncc3)cccc2C1=O	inactive
O=C(CN1CCOCC1)NCC[C@H]1CC[C@H](NC(=O)c2ccccc2F)[C@@H](CO)O1	inactive
C[C@@H]1CN([C@@H](C)CO)C(=O)c2cccc(NS(C)(=O)=O)c2O[C@@H]1CN(C)S(=O)(=O)c1ccccc1	inactive
C[C@H](CO)N1C[C@H](C)[C@H](CN(C)C(=O)NC2CCCCC2)Oc2c(NC(=O)c3cnccn3)cccc2C1=O	inactive
